# Laboratory results taken from paper PMC5515408.
# Some of the results follow. At the low end of the ranking, values are background and their order means little.
# Test system: MYC (p64) + MAX (p21), in MYC:MAX
# Test: protein-binding microarray (anti-MAX antibody)
# Details: PBM: 15 mM Tris-HCl pH 7.5, 100 mM KCl, 0.075% NP40, 7.5 mM beta-mercaptoethanol, 375 ng/ul BSA, 8 ng/ul poly(dA-dT):(dA-dT), 550 ng complex, 60 min, room …; high values mean tight binding; double strand, one strand shown; sequences stand for … in CCGGC…TTAATAGCTAAGATTACTATATCGACG
row,Sequence,binding signal (log2 normalized fluorescence)
1,TGAGTTCGTGTA,0.152
2,TGAGGAATAGTA,-0.22
3,TGAATCGGCGTA,-0.0713
4,TGATGCTAAGTA,-0.0239
5,TGAGGACCAGTA,0.0701
6,TGAGGCATGGTA,0.43
7,TGAAGTGCCGTA,0.122
8,TGAAGACTAGTA,-0.0517
9,TGACGCCCCGTA,0.102
10,TGACGTCAAGTA,-0.0202
11,TGAGGGACAGTA,0.0608
12,TGACTTGGAGTA,-0.083
13,TGAATTTATGTA,-0.0326
14,TGAGAGCCGGTA,-0.221
15,TGTGCCGTGGTA,0.191
16,TGAGAGCGCGTA,0.288
17,TGACGCGTGGTG,0.614
18,TGACCCGGGGTA,0.268
19,TTACACGTGATA,0.75
20,TGAAAACCGGTA,0.185
21,CCCCGTGGTTAC,0.418
22,TGAAACCTGGTA,0.241
23,GGATACGTGGTA,0.475

row,Sequence,binding signal (log2 normalized fluorescence)
1,TGGCAACTGGTA,0.0475
2,TGAAACCGTGTA,0.331
3,TGAGTCTGGGTA,-0.221
4,TGACATGGTGTA,0.337
5,TGAGTGTGCGTA,0.13
6,TGACTGTTTGTA,-0.0198
7,TGAAGGACAGTA,-0.084
8,TGAATTACCGTA,0.041
9,TGACATAGGGTA,0.203
10,TCCTACGTGGTA,0.54
11,TGATGAAGCGTA,-0.0174
12,TGAGAACGGGTA,-0.00337
13,TGAGACTTTGTA,0.000456
14,TGATGGGCGGTA,0.055
15,TGACATCTCGTA,0.221
16,TGAGTTCATGTA,0.228
17,TGACTTATAGTA,0.0293
18,TGACACAAGGTA,0.501
19,TGATCTAGGGTA,-0.27
20,TGAGAGTGCGTA,0.111
21,TGACCTCTTGTA,0.189
22,TGAAGTCCGGTA,-0.0794
23,TGACACGTTTCA,0.667

row,Sequence,binding signal (log2 normalized fluorescence)
1,TGATCGCTTGTA,-0.00084
2,TGAATCGGTGTA,-0.0501
3,TGACGTTGAGTA,0.0225
4,TGACCCAGAGTA,-0.0825
5,TGATGTTTCGTA,-0.0689
6,TGATGGAGGGTA,0.167
7,TGACGTGGAGTA,0.368
8,TGACCTAGAGTA,-0.0525
9,TGAGGTAAAGTA,-0.193
10,TGAATGCGTGTA,0.372
11,TGAAGACTGGTA,0.0776
12,TGATACTGCGTA,0.0751
13,TGAATACCAGTA,-0.12
14,AGACACGGGGTA,0.561
15,TGACTTCTAGTA,-0.0933
16,TGAGCGGTGGTA,0.141
17,TGACTAATGGTA,0.185
18,TGAACGCCGGTA,0.0499
19,TGACACGAAATA,0.123
20,TGAGCTCGAGTA,0.169
21,TGAACCACGGTA,0.424
22,TGACGGTTGGTA,0.0823
23,TGAATGCTCGTA,0.148
